Experimental data published in the supplement of paper PMC10126150.
Sequences with one replicate were seen in a single cluster, so their values are uncertain.

Test system: ATP
Assay: switch fluorescence ratio, 500 uM ATP over buffer (Cy3 cluster intensity, sum of 5 cycles each) (fold (ratio)); higher = stronger signal-on switching upon ATP binding; sequences stand for … in TCGTCGGCAGCGTCAGATGTGTATAAGAGACAGTTTTTTTTTTTTTTTTTTTTTTTTT…TC
Settings: aptamer strand: ATP DNA aptamer (quencher-CACCTGGGGGAGTATTGCGGAGGAAGG + anchor), 100 nM annealed; ATP concentration: 500 uM; one replicate
Method in brief: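 After annealing to 100 nM quencher-labelled ATP aptamer, Cy3-labelled switching-strand clusters on a modified Illumina MiSeq flow-cell were imaged in selection buffer. A second image followed after 15 min with 500 uM ATP at 22 °C, and five such buffer/ATP cycles were done, each separated by NaOH stripping and re-annealing. The fluorescence ratio, averaged per switch-domain sequence, is summed target-cycle over summed buffer-cycle Cy3 intensity per cluster, with clusters outside 100-1000 RFU excluded.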
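Further: ATP exposure 15 min at 22 °C before imaging.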

Sequence	switch fluorescence ratio
CATTCACCTG	1
CATCACTCAA	1.15
TCGCCAACGT	0.951
ACCCATTTGT	0.994
GAAACATGGT	1.04
AAGGTCTCTC	0.976
TGGGGTTGCT	0.941
ATTGGGCCGT	0.941
CGATCATTAT	0.994
ATCCATCGCG	1.04
TTAACCTATA	1.05
AGTACTAGTT	0.98
TAGGTATTTT	1.01
AGGCCGTAGA	1.02
AATGGGGTGC	1.04
CGCCTGGGTC	1
CATATCAGTC	1.04
CGAGTGTCAA	1.07
ACCAACCGGT	0.983
TTGTAAGATG	1.05
TAAGTTGCGC	0.989
TACGAAATT	1.01
ATCGGGAGG	1.38

Sequence	switch fluorescence ratio
AGCCTTGCCG	1.07
GGCGCCTTGA	0.953
AAAGACGGGA	1
GCAAGAGAAA	0.975
GCGCAATGTC	2.43
TCATTGTCGA	0.972
TCCTAATCGG	1.02
GTATTAGTGG	0.98
GGCATCGGAG	0.981
GGTAGTGTAG	1
AGTAGAAAAA	0.988
AGAGAGCCCG	0.966
CTGTTACTGG	0.981
GCAGGATCGG	0.975
TACAAACAGC	1.01
CGTTGACGTA	0.985
AGGATCACTA	1.02
CGACGTTTTG	0.992
AAGGGTCGTG	0.999
GAAGTTGGT	1.04
TTTTGCAAGG	0.987
TCAGTAAAGC	1
GGCGGTTTGC	1.01

Sequence	switch fluorescence ratio
ACCCCTCGCG	1.34
AAAGTAAAAT	1.01
TTACCAGGTC	1.17
AACCAGGGAC	1.08
ATAAGTAGC	0.973
GATTGCGACT	1.04
CGAGTGTCTG	1.02
GAGCGTGAGT	0.945
CTCATCATTA	1.06
GATAACTTT	1.04
CGCAACGGGG	1.24
TAAGCGAATT	1.25
GAGGGAGCAT	1.42
GGGGCAAAG	1.01
CGAGTTACTC	1.05
GTTGATTCAT	1
AGGTAAAATC	0.984
TTGCCAGC	1.07
TCAACGGCCG	1.05
TCACGGGGAC	1.11
CTCAATGGAG	1.03
AGTGAATCGC	0.993
ATCCAAAGTT	1.03

Sequence	switch fluorescence ratio
GCTTTCCGTG	1.07
GATGTGAT	1.16
ACAATGTTGA	1.03
AACCATTTCC	1.88
ACTTGCAATT	1.73
GATTCTTCTT	0.995
GCGAGATCCC	1.34
TTAATAGCTG	1.03
GCCTATGACA	1.03
ACGGCAGGTG	6.27
AGCGTTGGTT	1
TGATTGATCG	1.01
TACTGCGGA	1.03
TGGTGCAGTG	1.01
TACCACTAGA	1
CTCACCAGTG	2.79
ACAAATACCA	1.01
GGTTTAAGCG	1.01
ACGTATGAGG	1
TATAGGCCTG	1.01
CGGCCCCATT	1.01
CGCAAGCCCT	2.32
AACCGGGTAT	1.02

Sequence	switch fluorescence ratio
CTGTTACACG	1.03
GGGTTTGTCT	0.991
TAAGCATCTG	0.999
TTTGGCTCTA	1.03
CTGCAAATTG	1.09
TTAACAAATT	0.982
CTTATAACTT	0.976
CCGTGTCATA	1.09
TGTGAAATGA	0.968
TTGGGCAAGT	1.06
TCTAATCAAC	0.998
ACTCTTTTTG	1.02
TAGCCCGATT	1.01
GCGAACGCGA	3.53
ATACACATAT	1.03
TATCTAACGA	1.06
ATCGGATCTG	1.03
GAAACTCTTG	0.937
CGCGTTAAAC	1.16
AGACGATTTT	0.981
GGGTACTCTG	1.03
TATGCGTGCA	0.993
TAATCCTTGG	1

Sequence	switch fluorescence ratio
GTGTTTGCTT	1.01
AGGGCACTGG	0.981
AGACCTAAGG	1.04
TAACTGTGGT	0.969
CTGTCATACT	1.38
GGAGAGTCTT	1
CATTTTGTTA	0.991
GCTTAAGTCC	1.04
TCTGGCACCG	1
GAGCGGGGG	1.03
GCTATCCGGC	0.98
GAAGGGGGCT	1
GCACTGATGT	1.02
CAGAGCGTAA	1.19
GATCGGGTGA	1.02
ACAGCTTATG	1.07
TTGGCGATAT	1.63
TCATAGCTTA	0.978
TCAATTCTAG	0.942
CGTCGGTTTA	1.05
CAACTCAGGG	1.04
GTGACACTGG	1.02
AGGTCAGATA	1.03

Sequence	switch fluorescence ratio
TTCTTTGTAA	1.04
GCCGGGCCA	1
TGCACGGGGA	1.06
TTCGGACATG	0.982
ATCATTGTCA	1.07
TTGGTTAGAG	1.02
TATAGGCACA	1.05
GGTAGGTAAA	0.986
ACGTAGGCGA	1.08
ACACCAAATG	1.02
GGTGCTGTTT	0.969
ACAGCCCCTA	1.05
CCCTAACTTG	1.04
ATTTCTAATA	0.943
ACTGCTTGAA	1.02
GGCGCAGCTT	0.97
ACAGGCACTC	1.15
TTTGGCCGTC	1.21
CTTCACAAT	1.86
